Assay results as given in the supplement of paper PMC3334620.
Over roughly 33,000 sequences, “E-score (-0.5 to 0.5)” has its median near -0.043; the highest 2% begin near 0.37. The list shows a part of the results.

Each sequence was assayed against T1, Upc2 (UniProt Q12151) (assay: PBM E-score (8-mer binding enrichment) (E-score (-0.5 to 0.5)); higher = stronger / more preferred TF binding; most listed sequences are background and not binding sites). Conditions: protein concentration: 200 nM; construct: GST-full length.
T1 sequence: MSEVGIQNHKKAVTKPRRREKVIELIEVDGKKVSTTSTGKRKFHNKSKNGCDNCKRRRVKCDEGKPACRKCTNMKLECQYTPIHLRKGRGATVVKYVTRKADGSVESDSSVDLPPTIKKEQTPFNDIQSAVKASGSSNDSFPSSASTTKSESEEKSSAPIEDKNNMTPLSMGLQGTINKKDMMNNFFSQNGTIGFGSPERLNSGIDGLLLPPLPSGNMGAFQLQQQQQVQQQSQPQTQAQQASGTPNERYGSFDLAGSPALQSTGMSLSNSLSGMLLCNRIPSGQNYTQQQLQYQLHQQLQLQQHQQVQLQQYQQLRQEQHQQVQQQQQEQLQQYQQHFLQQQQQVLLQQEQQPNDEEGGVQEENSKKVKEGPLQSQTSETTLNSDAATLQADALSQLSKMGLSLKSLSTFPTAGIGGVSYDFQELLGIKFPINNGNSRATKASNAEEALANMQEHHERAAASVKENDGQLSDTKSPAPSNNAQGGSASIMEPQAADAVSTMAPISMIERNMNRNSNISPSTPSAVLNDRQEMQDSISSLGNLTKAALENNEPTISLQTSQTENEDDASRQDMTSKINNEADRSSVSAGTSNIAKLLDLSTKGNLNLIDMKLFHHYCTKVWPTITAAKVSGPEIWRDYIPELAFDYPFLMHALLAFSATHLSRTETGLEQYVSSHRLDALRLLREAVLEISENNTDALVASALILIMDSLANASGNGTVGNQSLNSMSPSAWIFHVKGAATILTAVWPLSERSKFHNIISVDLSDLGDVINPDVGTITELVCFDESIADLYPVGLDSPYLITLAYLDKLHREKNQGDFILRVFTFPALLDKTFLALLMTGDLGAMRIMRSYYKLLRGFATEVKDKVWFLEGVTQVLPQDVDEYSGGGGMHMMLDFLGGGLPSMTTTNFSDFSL
Outline: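 E-scores (a modified Wilcoxon-Mann-Whitney statistic) were assigned by the Universal PBM Analysis Suite to every ungapped eight-base word pooled with its reverse complement. The input came from universal all-10-mer Agilent arrays made double-stranded by primer extension and probed with GST-tagged yeast transcription factors at about 100-200 nM. Fluorescent anti-GST detected bound protein, and masliner normalised the scans.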

| Sequence | PBM E-score |
| --- | --- |
| CCAGCCAG | -0.29 |
| AGATATTA | 0.166 |
| CATGATCA | -0.0393 |
| TAAGAGTA | 0.126 |
| CTGCATTA | -0.0709 |
| CCAGAGGC | -0.0662 |
| GGACTGGA | -0.318 |
| AGGCTATA | -0.143 |
| ACCTGGGG | -0.164 |
| CCGCTTAA | 0.268 |
| CGACGCCC | 0.107 |
| CATCAGCC | -0.104 |
| GATCAAGA | -0.0833 |
| AATGAAAC | 0.029 |
| AACGCGGG | 0.177 |
| CACCGAGG | -0.114 |
| AAACTCGG | 0.0489 |
| ACCTCCTG | -0.194 |
| ACCCTGGG | 0.00937 |
| TGTCGACA | 0.063 |
| AGGTGAAG | -0.14 |
| GTACATAA | 0.112 |
| GCCGCCCC | -0.151 |
| ATCGGCAA | -0.093 |
| ACTGCAGC | -0.0726 |

| Sequence | PBM E-score |
| --- | --- |
| ACCGCCAC | -0.0746 |
| AAGGAATT | -0.215 |
| AAAGAGTC | -0.0926 |
| AAGTGTCT | -0.111 |
| ATTTACAG | -0.0746 |
| ACAGATTC | -0.00745 |
| GCACCGCA | 0.0467 |
| AGAGTCCC | -0.0876 |
| ATGTGCAC | -0.159 |
| AAGCAGCT | -0.103 |
| CTGCTGCC | -0.183 |
| GGTAGACA | -0.277 |
| ATCTCTTA | 0.24 |
| AACCGTGG | -0.167 |
| ACCCAGTA | -0.0194 |
| CCGCGCGC | -0.0182 |
| AATAGAGA | -0.0424 |
| GCATAGAA | -0.144 |
| CAAGCGAG | 0.279 |
| CATCCCCA | -0.284 |
| ACGAACGG | 0.387 |
| GTGGAGTA | -0.0688 |
| ACGTCTCG | 0.275 |
| CATTAATA | -0.0771 |
| ATGGGAGC | -0.0499 |

| Sequence | PBM E-score |
| --- | --- |
| TAGCCATA | 0.175 |
| ACGCTAGC | -0.0654 |
| CAACTGGA | -0.191 |
| GATGCGCC | -0.102 |
| AAGAATTG | 0.17 |
| TGAGCCAA | -0.128 |
| GACACACC | 0.0498 |
| CTATGCAC | -0.119 |
| AGAATTAC | 0.143 |
| GCTAGAAA | -0.0296 |
| CTCACACA | 0.0516 |
| GAATGTCA | -0.238 |
| CCAGACCA | -0.149 |
| CAACCATC | -0.0278 |
| GGTTCGAC | -0.0159 |
| ACTACGCA | -0.194 |
| CAGAGAGC | -0.203 |
| AACGGGCC | 0.202 |
| TGACACAA | -0.191 |
| AATGTGTC | -0.171 |
| CCATCCCA | -0.157 |
| CGTTCTCA | 0.247 |
| CCCTTAGA | -0.12 |
| ACAAATTA | -0.02 |
| ATGGGTCA | -0.0862 |

| Sequence | PBM E-score |
| --- | --- |
| AGTGCATA | 0.0404 |
| ATCTCCCC | -0.185 |
| TAAGTCCA | -0.0672 |
| ACACAAGT | 0.0927 |
| ATTCTCTA | 0.0201 |
| CCAGATGC | -0.206 |
| GACGCCCC | -0.0985 |
| TCCTCCGA | -0.108 |
| ATATCAGA | 0.0389 |
| GTAGATAA | 0.144 |
| CGTGTTTC | -0.171 |
| TCGCCGAA | 0.0671 |
| ATAACCAG | 0.0648 |
| ATCGCCAG | -0.132 |
| AAGCGTAG | 0.0667 |
| AATGAGAT | -0.058 |
| CCAAAGAC | -0.245 |
| AGCGATCC | 0.124 |
| GCTCTGGA | 0.039 |
| AGCTCCCT | -0.107 |
| CAGGCATG | -0.279 |
| AACGATGT | 0.388 |
| CAGCGACG | -0.208 |
| GCTAGACC | -0.207 |
| CATAGAAA | 0.00027 |

| Sequence | PBM E-score |
| --- | --- |
| GTTACGTA | 0.202 |
| ATGCAGGA | -0.171 |
| CTTAAGTA | -0.023 |
| CCAATTCA | -0.0667 |
| GGTAAATA | -0.0795 |
| ACGGAGGG | 0.217 |
| CCTGTACA | -0.0382 |
| AGTTACCA | -0.0135 |
| AGCATGGC | -0.181 |
| CATGTGCA | -0.19 |
| CGCAAGAC | -0.0394 |
| GCGGGATA | 0.0406 |
| AGGAGACG | 0.0203 |
| CCACACAG | -0.203 |
| ATACATAA | -0.0411 |
| GCCATATA | 0.191 |
| TACGACCA | 0.45 |
| AGAGCACA | -0.103 |
| ACCTATAT | 0.106 |
| CCGGTAGA | -0.118 |
| AATCGCTC | 0.073 |
| AAGTTATG | -0.0806 |
| ATCTACGA | 0.313 |
| GAAGTATC | -0.0621 |
| ACTGGGAA | -0.161 |

| Sequence | PBM E-score |
| --- | --- |
| ACGTGAGT | -0.103 |
| CAACCAGG | -0.171 |
| CAATTAGA | -0.0498 |
| CACGTGAC | -0.185 |
| CCATCGGC | -0.102 |
| CTCTTCAC | -0.00638 |
| AATAATCA | 0.146 |
| GCTTTTGA | -0.0714 |
| CATCATGG | -0.227 |
| AGCTCCAG | -0.0649 |
| CCGCGATA | 0.164 |
| CATTTTAA | -0.0408 |
| GCACGAGA | 0.0181 |
| GCCGGTTA | 0.0702 |
| CAAGTCGA | -0.225 |
| AGCCCGAA | -0.143 |
| CGCACGAA | 0.107 |
| GACTTCAA | -0.155 |
| ACAGCGTG | 0.0181 |
| ACTTGGTG | -0.184 |
| CCGGTGTC | -0.198 |
| AGAGAACT | 0.0757 |
| AAGCTATG | -0.0725 |
| TCGCTCCA | 0.193 |
| GCACAACA | -0.122 |

| Sequence | PBM E-score |
| --- | --- |
| ACCACTGC | -0.232 |
| AGGACGCA | -0.146 |
| CCCCGCGG | -0.0219 |
| GGTCGCTA | 0.0544 |
| GGTTTATA | 0.144 |
| GATCGTCA | -0.114 |
| AAGAGCAG | -0.206 |
| ACTCGGAT | 0.252 |
| AGGTCAAC | -0.0434 |
| CCTGGCCA | -0.23 |
| ATCGTCGA | -0.0998 |
| GCTAGAAC | -0.0195 |
| CGTCCGCC | -0.165 |
| GATGCGGA | -0.151 |
| CCTGGAAC | 0.194 |
| GGGTGCAC | -0.128 |
| CCAGATCA | -0.136 |
| GTCTCTCA | -0.113 |
| ATAATACC | -0.0586 |
| CAAATTAG | -0.0546 |
| AAATGTTA | -0.0925 |
| GGGCTGCA | -0.102 |
